From patent US20220356245A1 (FORTY SEVEN, published 2022)
Numbering of substitutions follows the chain as printed. Names may count otherwise.

B1: h20-VH2-VL2 (candidate 20.7) (antibody, human IgG4 S228P, kappa)
heavy: QVQLVQSGAEVKKPGASVKVSCKASGYSFTDYYINWVRQAPGQGLEWMGRIYPGIGNTYYNKKFKGRVTITRDTSASTAYMELSSLRSEDTAVYYCARGHYGRGMDYWGQGTLVTVSSASTKGPSVFPLAPCSRSTSESTAALGCLVKDYFPEPVTVSWNSGALTSGVHTFPAVLQSSGLYSLSSVVTVPSSSLGTKTYTCNVDHKPSNTKVDKRV[human IgG4 Fc with S228P (EU numbers) omitted]
light: DIVMTQSPDSLAVSLGERATINCKSSQSLLNSIDQKNYLAWYQQKPGQPPKLLIYFASTKESGVPDRFSGSGSGTDFTLTISSLQAEDVAVYYCQQHYSTPWTFGGGTKVEIKRTVAAPSVFIFPPSDEQLKSGTASVVCLLNNFYPREAKVQWKVDNALQSGNSQESVTEQDSKDSTYSLSSTLTLSKADYEKHKVYACEVTHQGLSSPVTKSFNRGEC
notes: hIgG4-S228P/kappa; also called h20-H2-L2
B2: h20-VH2-VL1 (candidate 20.6) (antibody, human IgG4 S228P, kappa)
heavy: B1 heavy
light: B1 light with V110L
notes: hIgG4-S228P/kappa; also called h20-H2-L1
B3: h20-VH3-VL1 (candidate 20.11) (antibody, human IgG4 S228P, kappa)
heavy: B1 heavy with I70V, A76I, Y80H, E89D, L113A
light: B1 light with V110L
notes: hIgG4-S228P/kappa; also called h20-H3-L1
B4: h20-VH3-VL2 (candidate 20.12) (antibody, human IgG4 S228P, kappa)
heavy: B1 heavy with I70V, A76I, Y80H, E89D, L113A
light: B1 light
notes: hIgG4-S228P/kappa; also called h20-H3-L2
B5: h20-VH4-VL1 (candidate 20.16) (antibody, human IgG4 S228P, kappa)
heavy: B1 heavy with A16S, R72A, T74K, A76T, L113T
light: B1 light with V110L
notes: hIgG4-S228P/kappa; also called h20-H4-L1
B6: h20-VH4-VL2 (candidate 20.17) (antibody, human IgG4 S228P, kappa)
heavy: B1 heavy with A16S, R72A, T74K, A76T, L113T
light: B1 light
notes: hIgG4-S228P/kappa; also called h20-H4-L2
B7: h20-VH5-VL1 (candidate 20.21) (antibody, human IgG4 S228P, kappa)
heavy: B1 heavy with I70M, D73Y, A76I, S85R, E89D, Y95F, L113T
light: B1 light with V110L
notes: hIgG4-S228P/kappa; also called h20-H5-L1
B8: h20-VH5-VL2 (candidate 20.22) (antibody, human IgG4 S228P, kappa)
heavy: B1 heavy with I70M, D73Y, A76I, S85R, E89D, Y95F, L113T
light: B1 light
notes: hIgG4-S228P/kappa; also called h20-H5-L2
B9: h20-VH1-VL2 (candidate 20.2) (antibody, human IgG4 S228P, kappa)
heavy: QVQLLESGAVLARPGTSVKISCKASGYSFTDYYINWVKQRPGQGLEWIGRIYPGIGNTYYNKKFKGRAKLTAATSASIAYLEFSSLTNEDSAVYYCARGHYGRGMDYWGQGTLVTVSSASTKGPSVFPLAPCSRSTSESTAALGCLVKDYFPEPVTVSWNSGALTSGVHTFPAVLQSSGLYSLSSVVTVPSSSLGTKTYTCNVDHKPSNTKVDKRV[human IgG4 Fc with S228P (EU numbers) omitted]
light: B1 light
notes: hIgG4-S228P/kappa; also called h20-H1-L2
B10: h20-VH1-VL1 (candidate 20.1) (antibody, human IgG4 S228P, kappa)
heavy: B9 heavy
light: B1 light with V110L
notes: hIgG4-S228P/kappa; also called h20-H1-L1
B11: h22-VH3-VL2 (candidate 22.10) (antibody, human IgG4 S228P, kappa)
heavy: QVQLQESGAEVKKPGASVKVSCKASGYTFTTYWMHWVRQAPGQGLEWMGMIHPNSGTTNYNEKFKSRVTMTRDTSTSTVYMELSSLRSEDTAVYYCTRSHYYDGHFSYWGQGTLVTVSSASTKGPSVFPLAPCSRSTSESTAALGCLVKDYFPEPVTVSWNSGALTSGVHTFPAVLQSSGLYSLSSVVTVPSSSLGTKTYTCNVDHKPSNTKVDKRV[human IgG4 Fc with S228P (EU numbers) omitted]
light: DIVMTQSPDSLAVSLGERATINCKSSQSLLNSRTRKNYLAWYQQKPGQPPKLLIYWASTRESGVPDRFSGSGSGTDFTLTISSLQAEDVAVYYCKQSYNLWTFGGGTKLEIKRTVAAPSVFIFPPSDEQLKSGTASVVCLLNNFYPREAKVQWKVDNALQSGNSQESVTEQDSKDSTYSLSSTLTLSKADYEKHKVYACEVTHQGLSSPVTKSFNRGEC
notes: hIgG4-S228P/kappa
B12: h22-VH3-VL1 (candidate 22.9) (antibody, human IgG4 S228P, kappa)
heavy: B11 heavy
light: B11 light with D9G, I21F, L109V, I111V
notes: hIgG4-S228P/kappa
B13: h22-VH4-VL2 (candidate 22.14) (antibody, human IgG4 S228P, kappa)
heavy: B11 heavy with Q5V, E6Q, A24G, M70L, T76I, V79A, S85R, R87T, E89D, L114M
light: B11 light
notes: hIgG4-S228P/kappa
B14: h22-VH4-VL1 (candidate 22.13) (antibody, human IgG4 S228P, kappa)
heavy: B11 heavy with Q5V, E6Q, A24G, M70L, T76I, V79A, S85R, R87T, E89D, L114M
light: B11 light with D9G, I21F, L109V, I111V
notes: hIgG4-S228P/kappa

Target: T1, hu-sCD47-6His; extracellular domain of human CD47 antigen with 6His-tag (human)
T1 construct: also called hCD47-his; soluble hCD47
Assay: SPR Biacore

Row | Binder | Kd [nM] | kon [M⁻¹ s⁻¹]
1 | B1 | 3.77 | 189000
2 | B2 | 3.67 | 193000
3 | B3 | 2.79 | 222000
4 | B4 | 2.49 | 246000
5 | B5 | 3.86 | 175000
6 | B6 | 4.18 | 168000
7 | B7 | 9.2 | 116000
8 | B8 | 8.55 | 142000
9 | B9 | 7.82 | 136000
10 | B10 | 6.45 | 120000

Target: T1, hu-sCD47-6His; extracellular domain of …
Assay: SPR Biacore
Remark: another data set of the same source

Row | Binder | Kd [nM] | koff [s⁻¹] | kon [M⁻¹ s⁻¹]
11 | B11 | 11.1 | 0.000315 | 28800
12 | B12 | 12.9 | 0.000318 | 24600
13 | B13 | 10.4 | 0.000325 | 31200
14 | B14 | 13.2 | 0.000337 | 25600

Target: T2, human CD47 (hCD47) expressed on cells (human, UniProt Q08722)
T2 construct: Transfected CHO cells or endogenous CD47 of human cells; also called CHO-hCD47; CD47 on Raji cells
Assay: flow cytometry, Raji cells

Row | Binder | EC50 [µg/mL]
15 | B1 | 0.156
16 | B2 | 0.177
17 | B3 | 0.145
18 | B4 | 0.153
19 | B5 | 0.113
20 | B6 | 0.124
21 | B7 | 0.19
22 | B8 | 0.189
23 | B9 | 0.218
24 | B10 | 0.193

Target: T2, human CD47 (hCD47) expressed on cells
Assay: flow cytometry, Raji cells
Remark: another data set of the same source

Row | Binder | EC50 [µg/mL]
25 | B11 | 0.141
26 | B12 | 0.101
27 | B13 | 0.099
28 | B14 | 0.07

Target: T1, hu-sCD47-6His; extracellular domain of …
Assay: SPR Biacore; head read as x 10^-4

Row | Binder | koff [s⁻¹]
29 | B1 | 0.00066
30 | B2 | 0.000627
31 | B3 | 0.000561
32 | B4 | 0.00056
33 | B5 | 0.000619
34 | B6 | 0.000634
35 | B7 | 0.000979
36 | B8 | 0.00117
37 | B9 | 0.00111
38 | B10 | 0.000691

Target: T3, mouse CD47 (mCD47) expressed on CHO cells (mouse, UniProt Q61735 19-303)
T3 construct: whole, on cells; also called CHO-mCD47
T3 sequence (looked up): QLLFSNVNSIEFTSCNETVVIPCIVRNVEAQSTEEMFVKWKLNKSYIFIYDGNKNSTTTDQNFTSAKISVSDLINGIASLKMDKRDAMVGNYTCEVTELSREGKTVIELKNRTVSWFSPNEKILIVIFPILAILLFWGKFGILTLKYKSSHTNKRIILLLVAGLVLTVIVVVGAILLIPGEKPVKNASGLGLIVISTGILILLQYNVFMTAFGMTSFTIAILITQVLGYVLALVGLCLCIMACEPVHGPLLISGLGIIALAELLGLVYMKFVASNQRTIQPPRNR
Assay: flow cytometry, CHO-mCD47 cells (not shown)

Row | Binder | binding result
39 | B1 | no binding
40 | B2 | no binding
41 | B3 | no binding
42 | B4 | no binding
43 | B5 | no binding
44 | B6 | no binding
45 | B7 | no binding
46 | B8 | no binding
47 | B9 | no binding
48 | B10 | no binding

Target: T2, human CD47 (hCD47) expressed on cells
Assay: flow cytometry, Raji cells, competition with hSIRPα

Row | Binder | IC50 [µg/mL]
49 | B1 | 0.076
50 | B2 | 0.098
51 | B3 | 0.118
52 | B4 | 0.16
53 | B5 | 0.1
54 | B6 | 0.086
55 | B7 | 0.169
56 | B8 | 0.174
57 | B9 | 0.216
58 | B10 | 0.161

Target: T2, human CD47 (hCD47) expressed on cells
Assay: as above
Remark: another data set of the same source

Row | Binder | IC50 [µg/mL]
59 | B11 | 0.109
60 | B12 | 0.075
61 | B13 | 0.093
62 | B14 | 0.119

Target: T2, human CD47 (hCD47) expressed on cells
Assay: flow cytometry on Raji cells, hIgG4 format, delta MFI

Row | Binder | EC50 (read off the curve) [µg/mL]
63 | B4 | ~0.08

Target: T2, human CD47 (hCD47) expressed on cells
Assay: flow cytometry on Raji cells, hIgG4 format: inhibition of hSIRPα binding to hCD47

Row | Binder | IC50 (read off the curve) [µg/mL]
64 | B4 | ~0.1
